± gives the standard deviation of the averaged measurements. This is one part of the list.

In the assay the test system is PfAP2-EXP AP2 domain (GST-tagged). Briefly: gcPBM binding intensity (ln(normalized median fluorescence intensity)); higher = stronger DNA binding. In a few lines: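 Using an Agilent 4 × 180k array, primer-extended double-stranded 36-bp intergenic genomic probes and negative controls were exposed for 1 h to GST-fused P. falciparum DNA-binding domains expressed in E. coli. Binding was carried out in 1× PBS with 1% milk, 0.2 mg/ml BSA, 0.5% salmon testes DNA and 0.03% Triton X-100, and protein was detected with Alexa488 anti-GST antibody and a 488 nm scan. Binding intensity is the highest Masliner-normalised natural-log median intensity across replicate spots of either probe orientation.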
In the case of “TGAATGCTTTTATGCACACGTACAAAAATATTATAT [CACACA_site2668]”, the “gcPBM binding intensity (ln)” value stood at 8.62 ± 0.12.

In the case of “GTCATTAAAAAAATATGTACTTAAATGTATGCATAT [XGTACX_site5951]”, the “gcPBM binding intensity (ln)” value was 8.43 ± 0.31.

Turning to “TGTGGTTTTTATAATTGTACATATATATAAATCTAT [XGTACX_site4766]”, the “gcPBM binding intensity (ln)” value was 8.73 ± 0.41.

Turning to “ATATAAAATAAATAAGTGCAGATAAATTTATGTGAC [GTGCAC_site9504]”, the “gcPBM binding intensity (ln)” value came out at 9.04 ± 0.32.

Take “TGTTGTTATAAAAAAAAAAAAAAAAAAAAAAAAAAA [GTGCAC_negctrl_site230]”: the “gcPBM binding intensity (ln)” value is 8.1 ± 0.28.

With “TATATATTATATATATGTACTTATTTATTAATTTAT [XGTACX_site5253]”, the “gcPBM binding intensity (ln)” value amounted to 8.29 ± 0.25.

For “GGAATATAAATACATACACACATATATATATATATA [CACACA_site4998]”, the “gcPBM binding intensity (ln)” value was found to be 10.1 ± 0.38.

Regarding “TATAATAAATCAAATGCACACACACTAATAAAAAAA [CACACA_site7937]”, the “gcPBM binding intensity (ln)” value came to 8.85 ± 0.35.

“TACATGCTTATTTTAACACACAAATGGTAGTAATAA [CACACA_site766]”: the “gcPBM binding intensity (ln)” value was 8.37 ± 0.26.

For “ATGAATATTTACAATCTTATTATGTTCAAAATTAAT [CACACA_negctrl_site592]”, the “gcPBM binding intensity (ln)” value was determined as 8.25 ± 0.33.

“ATAAAATACAAAGGGACACACATATGAGTCTACAAA [CACACA_site3092]”: the “gcPBM binding intensity (ln)” value amounted to 8.59 ± 0.57.

In the case of “TATATAATATAATGTAGTACATGTTTTATTTTTTAC [XGTACX_site7735]”, the “gcPBM binding intensity (ln)” value stood at 8.45 ± 0.42.

Consider “ATTTATTTATTTTCATGTACATATGTAAATCAATAA [XGTACX_site3886]”, for which the “gcPBM binding intensity (ln)” value is 8.46 ± 0.38.

With “TCACAAATGTATTATACACACAAGTTTTCTTTAATA [CACACA_site4107]”, the “gcPBM binding intensity (ln)” value came to 8.39 ± 0.41.

Turning to “ATATTAACTTTTATTACACACTCTCAACTTTTATTT [CACACA_site6176]”, the “gcPBM binding intensity (ln)” value worked out at 8.63 ± 0.21.

Regarding “AAGTTATACACATCAACACACACATACAACGTGGTG [CACACA_site8312]”, the “gcPBM binding intensity (ln)” value was 8.52 ± 0.45.

Take “TAAACACATTATATATGTACATAATAAAAAAAAAAA [XGTACX_site7907]”: the “gcPBM binding intensity (ln)” value came to 8.6 ± 0.32.

As to “TTTTTTTTTTTTTTTTTTTTTTTCTACCTATTTATT [CACACA_negctrl_site94]”, the “gcPBM binding intensity (ln)” value was 7.94 ± 0.47.

In the case of “TTGTATAAAATATGTAGTACAATAATATAACATTTT [XGTACX_site8607]”, the “gcPBM binding intensity (ln)” value is 8.55 ± 0.2.

As to “TATGTATATTGAGATTGTACTTGTAATATTAAACAT [XGTACX_site3878]”, the “gcPBM binding intensity (ln)” value amounted to 8.42 ± 0.41.

Turning to “AATAATAAAAATATTGTGCACTTGTATATTTATTAT [GTGCAC_site9963]”, the “gcPBM binding intensity (ln)” value is 8.82 ± 0.16.

For the sequence “AAGGAATAAAATTTAGAAGACAATTTTATTTCAGTA [XGTACX_negctrl_site331]”, the “gcPBM binding intensity (ln)” value was determined as 8.25 ± 0.59.

On to “ATATCAAATAATTTAGTGCACTTTTTTTTTTCTTTT [GTGCAC_site9629]”, for which the “gcPBM binding intensity (ln)” value stood at 9.16 ± 0.3.

In the case of “GGTATTTTCACATATAGTACACAAAAATAAAATAAA [XGTACX_site2139]”, the “gcPBM binding intensity (ln)” value was 8.75 ± 0.16.

In the case of “CTAATCATAAAATATACACACACGGATACATTAAAT [CACACA_site2685]”, the “gcPBM binding intensity (ln)” value turned out to be 8.81 ± 0.56.

Take “ATTTCTCTATCGTAATGTACAAAAAAAAGGGAAAAG [XGTACX_site1335]”: the “gcPBM binding intensity (ln)” value turned out to be 8.77 ± 0.52.

For “ATTGAAGGGAAATATATAATCATATTCAAAATAAAA [CACACA_negctrl_site728]”, the “gcPBM binding intensity (ln)” value turned out to be 8.43 ± 0.39.

For the sequence “TTTATACTTTCAAAATGTACATATATATATATATAT [XGTACX_site6241]”, the “gcPBM binding intensity (ln)” value came to 10.2 ± 0.24.

Take “TAATATATAATTTTATGTACATAATTATAAACCCAT [XGTACX_site919]”: the “gcPBM binding intensity (ln)” value is 8.6 ± 0.28.

As for “AAAAAATACCAAAGGGGTACTTACACATAATACTTA [XGTACX_site2111]”, the “gcPBM binding intensity (ln)” value was 8.29 ± 0.36.

“CATCAAAATGAAGCATGTACATAATATAAATAAATA [XGTACX_site4647]”: the “gcPBM binding intensity (ln)” value came to 8.88 ± 0.45.

On to “CTTTTTACTTAATACACACACACACCCAAAAAAAAA [CACACA_site948]”, for which the “gcPBM binding intensity (ln)” value was found to be 8.74 ± 0.43.

Regarding “CATATATATATATGAACACACAAAAAGAATATTTCC [CACACA_site1493]”, the “gcPBM binding intensity (ln)” value was 8.74 ± 0.33.

“GTAGAAAGAAAAATTAGTACTTAAATATTATAAAAA [XGTACX_site8458]”: the “gcPBM binding intensity (ln)” value is 8.39 ± 0.42.

On to “AATTATATTTAGTATATGCACACTTTATGTTTGTTA [CACACA_site2025]”, for which the “gcPBM binding intensity (ln)” value was found to be 8.66 ± 0.28.

Turning to “TTCTATGCATTTATAGTGCATGTAAAATATAAGATA [GTGCAC_site9466]”, the “gcPBM binding intensity (ln)” value was determined as 8.825 ± 0.035.

Consider “TCTATACCTATTCTTACACACATATGTATTTATATA [CACACA_site4475]”, for which the “gcPBM binding intensity (ln)” value was 8.99 ± 0.39.

On to “TTTAAAAAAAAAAAAAATTTTTTTTTTTTTTTTTTA [CACACA_negctrl_site1415]”, for which the “gcPBM binding intensity (ln)” value came to 7.83 ± 0.44.

Turning to “AAAAAAAAAAAACATACACACACACTAATATTTATA [CACACA_site8038]”, the “gcPBM binding intensity (ln)” value was 8.39 ± 0.57.

As for “GACTTTTTCATTTTTAGTACACATATATATTTCCCT [XGTACX_site3511]”, the “gcPBM binding intensity (ln)” value came out at 9.38 ± 0.32.

As for “TTAAAAAATCACAACACACACACACCCAAAAAAAAA [CACACA_site1445]”, the “gcPBM binding intensity (ln)” value came to 8.64 ± 0.5.

As for “ATATATTTTTAATATGCACACAAGAATACATTCACA [CACACA_site914]”, the “gcPBM binding intensity (ln)” value amounted to 8.67 ± 0.18.

Turning to “TTTTAAAAAATATAATAATATAAATATTTTATACGT [TGCATGCA_negctrl_site252]”, the “gcPBM binding intensity (ln)” value is 8.11 ± 0.4.

For the sequence “AACATATAAAAATATGCACACACAGGAATACAAACA [CACACA_site8127]”, the “gcPBM binding intensity (ln)” value amounted to 9.07 ± 0.44.

(Values after the supplement of paper PMC11417369.)
